# Experimental data: the supplement of paper PMC8728848
# The other results are listed elsewhere or left out.
# B1: Nc3LysM (protein)
# chain: QFTVPPDTTAEPNTIKTCTWWHVAGSGDSCTSIASTYGITSEQFARWDMETTDSPKNPSVATACKLTVGNSYCIENNFGQDDPPTPSISSSTLIGTATTSTTASTTTGNGISTPTPIQEGMETATTTTSSGNGITTPTPTQAGMETVGNCDRFHLVKSGDQCGTIASTYGITLANFYSWNPAVGTSCQSLWLDTYVCVRTIGFVPPKTTTTTTKKPTSTTSAGGVATPTPTQPGMETVSGCKKFHKGRGNVSTVASGDQCGTIATRYGISLANFYSWNPAVGSSCQTLWLDYYVCVGR
# Key:
# Experiment in all cases: glycan array binding signal (z-score within array); higher = stronger binding
# Conditions in all cases: glycan notation: IUPAC condensed, linker removed
# [1] = molecular target: Neu5Ac(a2-3)Gal(b1-4)GlcNAc(b1-6)GalNAc
# Outline: (§1)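 Glycan array data were curated from 3228 arrays in the Consortium for Functional Glycomics database and kept only where the protein sequence was available. Glycan names were converted to IUPAC-condensed notation, and columns mapping to the same glycan were averaged. The binding signal is a within-array Z-score, averaged across arrays of the same protein sequence at different concentrations or buffers and across linkers. Negative Z-scores can be read as non-binding.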
# [2] = molecular target: Neu5Ac(a2-3)Gal(b1-4)GlcNAc(b1-6)[Gal(b1-3)]GalNAc
# Outline: as §1
# [3] = molecular target: Neu5Ac(a2-3)Gal(b1-4)GlcNAc(b1-6)[Neu5Ac(a2-3)Gal(b1-3)]GalNAc
# Outline: as §1
# [4] = molecular target: Neu5Ac(a2-3)Gal(b1-4)GlcNAc6S
# Outline: as §1
# [5] = molecular target: Neu5Ac(a2-3)Gal(b1-4)[Fuc(a1-3)]GlcNAc
# Outline: as §1
# [6] = molecular target: Neu5Ac(a2-3)Gal(b1-4)[Fuc(a1-3)]GlcNAc(b1-2)Man
# Outline: as §1
# [7] = molecular target: Neu5Ac(a2-3)Gal(b1-4)[Fuc(a1-3)]GlcNAc(b1-3)Gal
# Outline: as §1
# [8] = molecular target: Neu5Ac(a2-3)Gal(b1-4)[Fuc(a1-3)]GlcNAc(b1-3)Gal(b1-4)GlcNAc
# Outline: as §1
# [9] = molecular target: Neu5Ac(a2-3)Gal(b1-4)[Fuc(a1-3)]GlcNAc(b1-3)Gal(b1-4)[Fuc(a1-3)]GlcNAc(b1-3)Gal(b1-4)[Fuc(a1-3)]GlcNAc
# Outline: as §1
# [10] = molecular target: Neu5Ac(a2-3)Gal(b1-4)[Fuc(a1-3)]GlcNAc(b1-3)GalNAc
# Outline: as §1
# [11] = molecular target: Neu5Ac(a2-3)Gal(b1-4)[Fuc(a1-3)]GlcNAc(b1-6)[Gal(b1-3)]GalNAc
# Outline: as §1
# [12] = molecular target: Neu5Ac(a2-3)Gal(b1-4)[Fuc(a1-3)]GlcNAc(b1-6)[Neu5Ac(a2-3)Gal(b1-3)]GalNAc
# Outline: as §1
# [13] = molecular target: Neu5Ac(a2-3)Gal(b1-4)[Fuc(a1-3)]GlcNAc6S
# Outline: as §1
# [14] = molecular target: Neu5Ac(a2-3)Gal6S(b1-4)GlcNAc
# Outline: as §1
# [15] = molecular target: Neu5Ac(a2-3)Gal6S(b1-4)[Fuc(a1-3)]GlcNAc
# Outline: as §1
# Neu5Ac(a2-3)GalNAc = molecular target: Neu5Ac(a2-3)GalNAc
# Outline: as §1
# [16] = molecular target: Neu5Ac(a2-3)GalNAc(b1-4)GlcNAc
# Outline: as §1
# [17] = molecular target: Neu5Ac(a2-3)[GalNAc(b1-4)]Gal(b1-4)Glc
# Outline: as §1
# [18] = molecular target: Neu5Ac(a2-3)[GalNAc(b1-4)]Gal(b1-4)GlcNAc
# Outline: as §1
# [19] = molecular target: Neu5Ac(a2-3)[GalNAc(b1-4)]Gal(b1-4)GlcNAc(b1-3)GalNAc
# Outline: as §1
# [20] = molecular target: Neu5Ac(a2-3)[Neu5Ac(a2-6)]GalNAc
# Outline: as §1
# Neu5Ac(a2-6)Gal = molecular target: Neu5Ac(a2-6)Gal
# Outline: as §1
# [21] = molecular target: Neu5Ac(a2-6)Gal(b1-3)GlcNAc(b1-3)[Gal(b1-4)GlcNAc(b1-6)]Gal(b1-4)Glc
# Outline: as §1
# Neu5Ac(a2-6)Gal(b1-4)Glc = molecular target: Neu5Ac(a2-6)Gal(b1-4)Glc
# Outline: as §1
# [22] = molecular target: Neu5Ac(a2-6)Gal(b1-4)GlcNAc
# Outline: as §1
# [23] = molecular target: Neu5Ac(a2-6)Gal(b1-4)GlcNAc(b1-2)Man
# Outline: as §1
# [24] = molecular target: Neu5Ac(a2-6)Gal(b1-4)GlcNAc(b1-2)Man(a1-3)Man(b1-4)GlcNAc(b1-4)GlcNAc
# Outline: as §1
# [25] = molecular target: Neu5Ac(a2-6)Gal(b1-4)GlcNAc(b1-2)Man(a1-3)[Gal(b1-4)GlcNAc(b1-2)Man(a1-6)]Man(b1-4)GlcNAc(b1-4)GlcNAc
# Outline: as §1
# [26] = molecular target: Neu5Ac(a2-6)Gal(b1-4)GlcNAc(b1-2)Man(a1-3)[GlcNAc(b1-2)Man(a1-6)]Man(b1-4)GlcNAc(b1-4)GlcNAc
# Outline: as §1
# [27] = molecular target: Neu5Ac(a2-6)Gal(b1-4)GlcNAc(b1-2)Man(a1-3)[GlcNAc(b1-4)][Neu5Ac(a2-6)Gal(b1-4)GlcNAc(b1-2)Man(a1-6)]Man(b1-4)GlcNAc(b1-4)GlcNAc
# Outline: as §1
# [28] = molecular target: Neu5Ac(a2-6)Gal(b1-4)GlcNAc(b1-2)Man(a1-3)[Man(a1-6)]Man(b1-4)GlcNAc(b1-4)GlcNAc
# Outline: as §1
# [29] = molecular target: Neu5Ac(a2-6)Gal(b1-4)GlcNAc(b1-2)Man(a1-3)[Neu5Ac(a2-3)Gal(b1-4)GlcNAc(b1-2)Man(a1-6)]Man(b1-4)GlcNAc(b1-4)GlcNAc
# Outline: as §1
# [30] = molecular target: Neu5Ac(a2-6)Gal(b1-4)GlcNAc(b1-2)Man(a1-3)[Neu5Ac(a2-6)Gal(b1-4)GlcNAc(b1-2)Man(a1-6)]Man(b1-4)GlcNAc(b1-4)GlcNAc
# Outline: as §1
# [31] = molecular target: Neu5Ac(a2-6)Gal(b1-4)GlcNAc(b1-2)Man(a1-3)[Neu5Ac(a2-6)Gal(b1-4)GlcNAc(b1-2)Man(a1-6)]Man(b1-4)GlcNAc(b1-4)[Fuc(a1-6)]GlcNAc
# Outline: as §1
# [32] = molecular target: Neu5Ac(a2-6)Gal(b1-4)GlcNAc(b1-2)Man(a1-6)Man(b1-4)GlcNAc(b1-4)GlcNAc
# Outline: as §1
# [33] = molecular target: Neu5Ac(a2-6)Gal(b1-4)GlcNAc(b1-2)Man(a1-6)[Gal(b1-4)GlcNAc(b1-2)Man(a1-3)]Man(b1-4)GlcNAc(b1-4)GlcNAc
# Outline: as §1
# [34] = molecular target: Neu5Ac(a2-6)Gal(b1-4)GlcNAc(b1-2)Man(a1-6)[GlcNAc(b1-2)Man(a1-3)]Man(b1-4)GlcNAc(b1-4)GlcNAc
# Outline: as §1
# [35] = molecular target: Neu5Ac(a2-6)Gal(b1-4)GlcNAc(b1-2)Man(a1-6)[Man(a1-3)]Man(b1-4)GlcNAc(b1-4)GlcNAc
# Outline: as §1
# [36] = molecular target: Neu5Ac(a2-6)Gal(b1-4)GlcNAc(b1-2)[Neu5Ac(a2-6)Gal(b1-4)GlcNAc(b1-4)]Man(a1-3)[GlcNAc(b1-4)][Neu5Ac(a2-6)Gal(b1-4)GlcNAc(b1-2)[Neu5Ac(a2-6)Gal(b1-4)GlcNAc(b1-6)]Man(a1-6)]Man(b1-4)GlcNAc(b1-4)GlcNAc
# Outline: as §1
# [37] = molecular target: Neu5Ac(a2-6)Gal(b1-4)GlcNAc(b1-2)[Neu5Ac(a2-6)Gal(b1-4)GlcNAc(b1-4)]Man(a1-3)[GlcNAc(b1-4)][Neu5Ac(a2-6)Gal(b1-4)GlcNAc(b1-4)Man(a1-6)]Man(b1-4)GlcNAc(b1-4)GlcNAc
# Outline: as §1
# [38] = molecular target: Neu5Ac(a2-6)Gal(b1-4)GlcNAc(b1-2)[Neu5Ac(a2-6)Gal(b1-4)GlcNAc(b1-6)]Man(a1-6)[Neu5Ac(a2-6)Gal(b1-4)GlcNAc(b1-2)Man(a1-3)][GlcNAc(b1-4)]Man(b1-4)GlcNAc(b1-4)GlcNAc
# Outline: as §1
# [39] = molecular target: Neu5Ac(a2-6)Gal(b1-4)GlcNAc(b1-3)Gal(b1-3)GlcNAc
# Outline: as §1
# [40] = molecular target: Neu5Ac(a2-6)Gal(b1-4)GlcNAc(b1-3)Gal(b1-4)GlcNAc
# Outline: as §1
# [41] = molecular target: Neu5Ac(a2-6)Gal(b1-4)GlcNAc(b1-3)Gal(b1-4)GlcNAc(b1-2)Man(a1-3)[Neu5Ac(a2-6)Gal(b1-4)GlcNAc(b1-3)Gal(b1-4)GlcNAc(b1-2)Man(a1-6)]GalNAc
# Outline: as §1
# [42] = molecular target: Neu5Ac(a2-6)Gal(b1-4)GlcNAc(b1-3)Gal(b1-4)GlcNAc(b1-3)Gal(b1-4)GlcNAc
# Outline: as §1
# [43] = molecular target: Neu5Ac(a2-6)Gal(b1-4)GlcNAc(b1-3)Gal(b1-4)GlcNAc(b1-3)Gal(b1-4)GlcNAc(b1-2)Man(a1-3)[Neu5Ac(a2-6)Gal(b1-4)GlcNAc(b1-3)Gal(b1-4)GlcNAc(b1-3)Gal(b1-4)GlcNAc(b1-2)Man(a1-6)]GalNAc
# Outline: as §1
binder,measurement,setting,value
B1,glycan array binding signal (z-score),[1],-0.054
same,glycan array binding signal (z-score),[2],-0.075
same,glycan array binding signal (z-score),[3],-0.11
same,glycan array binding signal (z-score),[4],-0.167
same,glycan array binding signal (z-score),[5],0.098
same,glycan array binding signal (z-score),[6],0.007
same,glycan array binding signal (z-score),[7],-0.271
same,glycan array binding signal (z-score),[8],0.009
same,glycan array binding signal (z-score),[9],-0.141
same,glycan array binding signal (z-score),[10],-0.069
same,glycan array binding signal (z-score),[11],-0.127
same,glycan array binding signal (z-score),[12],-0.017
same,glycan array binding signal (z-score),[13],-0.008
same,glycan array binding signal (z-score),[14],-0.239
same,glycan array binding signal (z-score),[15],0.067
same,glycan array binding signal (z-score),Neu5Ac(a2-3)GalNAc,-0.188
same,glycan array binding signal (z-score),[16],-0.077
same,glycan array binding signal (z-score),[17],-0.173
same,glycan array binding signal (z-score),[18],-0.172
same,glycan array binding signal (z-score),[19],-0.016
same,glycan array binding signal (z-score),[20],0.027
same,glycan array binding signal (z-score),Neu5Ac(a2-6)Gal,-0.204
same,glycan array binding signal (z-score),[21],-0.162
same,glycan array binding signal (z-score),Neu5Ac(a2-6)Gal(b1-4)Glc,-0.101
same,glycan array binding signal (z-score),[22],-0.121
same,glycan array binding signal (z-score),[23],-0.043
same,glycan array binding signal (z-score),[24],0.14
same,glycan array binding signal (z-score),[25],-0.063
same,glycan array binding signal (z-score),[26],-0.106
same,glycan array binding signal (z-score),[27],0.021
same,glycan array binding signal (z-score),[28],0.033
same,glycan array binding signal (z-score),[29],-0.15
same,glycan array binding signal (z-score),[30],-0.212
same,glycan array binding signal (z-score),[31],0.13
same,glycan array binding signal (z-score),[32],0.046
same,glycan array binding signal (z-score),[33],-0.163
same,glycan array binding signal (z-score),[34],0.31
same,glycan array binding signal (z-score),[35],0.07
same,glycan array binding signal (z-score),[36],-0.126
same,glycan array binding signal (z-score),[37],-0.235
same,glycan array binding signal (z-score),[38],-0.072
same,glycan array binding signal (z-score),[39],-0.049
same,glycan array binding signal (z-score),[40],-0.033
same,glycan array binding signal (z-score),[41],0.031
same,glycan array binding signal (z-score),[42],0.167
same,glycan array binding signal (z-score),[43],-0.155
